The supplement of paper PMC11417369
± gives the standard deviation of the averaged measurements. This is one part of the list.

Each sequence was assayed on PfAP2-EXP AP2 domain (GST-tagged) (assay: gcPBM binding intensity (ln(normalized median fluorescence intensity)); higher = stronger DNA binding).
Procedure, shortened: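 Plasmodium falciparum DNA-binding domains carrying a GST tag were expressed in E. coli and applied for 1 h, at about 25 μg on average, to an Agilent 4 × 180k array. The array held primer-extended double-stranded 36-bp intergenic genomic probes together with negative controls, and binding took place in 1× PBS with 1% milk, 0.2 mg/ml BSA, 0.5% salmon testes DNA and 0.03% Triton X-100. An Alexa488 anti-GST antibody detected bound protein, and the array was scanned at 488 nm. Binding intensity is taken as the highest Masliner-normalised natural-log median intensity across replicate spots of either probe orientation.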

| Sequence | gcPBM binding intensity (ln) |
| --- | --- |
| TTTTACGTAATATTTATACACACGAACCTTATTAAT [CACACA_site2300] | 8.58 ± 0.4 |
| TATATATATATAAGAAGTACAGAAAATTAGAAAAAA [XGTACX_site8773] | 9.82 ± 0.32 |
| TAGAAATAAGAAAAATGTACATATAATATTGAAAGT [XGTACX_site3043] | 9.17 ± 0.35 |
| AGTCTATAGTAATTTACACACAAAAAAATATCAGGA [CACACA_site7620] | 8.65 ± 0.44 |
| AGTAGTCTGGAGAAAAGTACATAGTATCTGGTAGCT [XGTACX_site2027] | 8.72 ± 0.7 |
| GCACATATGAATATAATACACACTTGTATTATTAAT [CACACA_site1841] | 8.39 ± 0.33 |
| ATTTTATATACAAAATGTACATATTTATTATATATG [XGTACX_site6732] | 8.65 ± 0.64 |
| AAGGATACGCAAAAATGTACAAAATGCTTATAAATA [XGTACX_site984] | 8.71 ± 0.25 |
| GGAGCTATCTCCTGCACACACAATTTTTTTTTTTTT [CACACA_site2240] | 8.41 ± 0.45 |
| ATTAAAATCATATACACACCCATATATATATATATA [CACACA_site5050] | 10.1 ± 0.34 |
| GAATAAATACCGGTGTGTACTTAAATCATTCACGAA [XGTACX_site3174] | 8.7 ± 0.36 |
| ATACATATCTACCTATGTACATAATACAACAAAGAT [XGTACX_site323] | 8.86 ± 0.42 |
| TGAGTATATAAATACACACACATATATATATTTTAA [CACACA_site5130] | 8.26 ± 0.41 |
| TTTTATTTTTAAGGATGTACTCAATTGTTTATATAC [XGTACX_site3965] | 8.6 ± 0.36 |
| TTTTTTTTTAATAAAATTATAATAAATATGAAATTA [XGTACX_negctrl_site369] | 7.96 ± 0.52 |
| ATATATATATATATATGTACACATATATATACTCAC [XGTACX_site8043] | 10 ± 0.4 |
| TGTATATTTTAGTGATGTACTAATATTATTACTAAT [XGTACX_site3952] | 8.29 ± 0.28 |
| ATATGTTTATTTATTTGTACTTATCATATAATAACA [XGTACX_site5486] | 8.54 ± 0.35 |
| TTAGAAAGAATGTATTGTACATATATATTATATATA [XGTACX_site7045] | 8.3 ± 0.32 |

| Sequence | gcPBM binding intensity (ln) |
| --- | --- |
| TGCTTAGCACACTATCTACTTCCTTTGTTTCATAAA [GTGCAC_negctrl_site495] | 8.88 ± 0.45 |
| TTCATTTATATAATCACACATTTTATCATCTATGTT [CACACA_site4327] | 8.66 ± 0.45 |
| GGTTCTAAAAAGGGAAGTACATGGAAAAATATAAAT [XGTACX_site4639] | 8.86 ± 0.54 |
| GCATGCACGGAAAAAAGTACATATATAAATTTGGTT [XGTACX_site3393] | 9.2 ± 0.23 |
| ATCGTTATATAATGTTGTACTTGTTATATATATATA [XGTACX_site7582] | 9.88 ± 0.5 |
| AAAATTATTATGAAAAGTACAAATATGTAAACATAC [XGTACX_site5517] | 8.45 ± 0.24 |
| TTTTTTAAATATATTTGTACATATGAAATAAAGATA [XGTACX_site3841] | 8.61 ± 0.37 |
| AAAATTTAGCAAAGGTGTACAAAAGATAATTAGAGT [XGTACX_site3467] | 9.24 ± 0.42 |
| AATATATTTTGATATGAACAATTAATAATTTCAAAT [GTGCAC_negctrl_site170] | 8.28 ± 0.42 |
| TTTTTCACATCTATAAATCATCTAATCAATATTTTT [GTGCAC_negctrl_site444] | 8.3 ± 0.42 |
| ATTCTAATTAGTAAAGTGCAGATAAAATGATGCCCT [GTGCAC_site9578] | 8.43 ± 0.25 |
| AAATTTTAATTAGGAACACACATATATATATATATA [CACACA_site5673] | 10.2 ± 0.24 |
| TTATATATAGATCACACACACACACCGGTTTTAAAA [CACACA_site4220] | 8.82 ± 0.49 |
| TAAATTTATGGACACACACACATATATATATATATA [CACACA_site4620] | 10.2 ± 0.47 |
| TCTTTTTTAATATAATATATTTTTATTAAGTAAATC [TGCATGCA_negctrl_site408] | 8.05 ± 0.23 |
| TATTTATCTATATATTGTACTTATTAGTCTTAATGT [XGTACX_site4242] | 8.54 ± 0.66 |
| ATTTTTTATGAAAATAAACACACGATTTATTATATA [CACACA_site1312] | 8.14 ± 0.33 |
| TTTTCAGAAAAGAGAAACTTTATTTTTCACAACCGA [TGCATGCA_negctrl_site389] | 8.21 ± 0.38 |
| TGTAGTCATTAGTCAAATTAGAATTAAATATATATT [GTGCAC_negctrl_site643] | 8.21 ± 0.5 |

| Sequence | gcPBM binding intensity (ln) |
| --- | --- |
| TAAAAAATTATTAAACGTACGAGACTTTTTATCAGT [XGTACX_site2219] | 8.46 ± 0.34 |
| CATAAAAATGGATACACACACATAATATATTTATAT [CACACA_site7669] | 8.61 ± 0.4 |
| ACAATATATTCATATTGTACATAAAATAAGGCTAAC [XGTACX_site6728] | 8.88 ± 0.28 |
| TATATTTAAATTCTTTCAAATCATGTTGTAATTTTT [CACACA_negctrl_site1349] | 8.39 ± 0.47 |
| ATACACTTAATATTATGTACATATATAAAAAAAATA [XGTACX_site1500] | 8.57 ± 0.42 |
| AGGAATATCGAAAACTGTACTTGTATGTTTCATAAA [XGTACX_site6143] | 8.46 ± 0.43 |
| TATAAAAATAATATTACACACATGTAAAATGGGGGT [CACACA_site9071] | 9.38 ± 0.29 |
| AATTGTATGTATGCCTGTACATATGTCTATCTTAAG [XGTACX_site1927] | 8.55 ± 0.42 |
| ATTTATTTATTTTTTTGTACTTATAATTTTTATTAT [XGTACX_site2656] | 8.7 ± 0.44 |
| TATTTTATATGAGGCACACAAATTTTAATTGTTATT [CACACA_site725] | 8.18 ± 0.33 |
| TGAATTATAAATTATAGTACTTTATAATATGAACAT [XGTACX_site2317] | 8.4 ± 0.36 |
| ATATATAATAAATACACACACATGTATTTATAAATA [CACACA_site5135] | 8.34 ± 0.33 |
| ATATAAATAAATTAGTGAAAAAAAAAAAATTTTTTT [CACACA_negctrl_site945] | 8.43 ± 0.52 |
| AATTAACAAAGACACACACACACACGCACAAAAAAA [CACACA_site6388] | 8.54 ± 0.16 |
| TTTAAAAAAATATATACACACATATATATATATATA [CACACA_site617] | 10.1 ± 0.38 |
| CTCCATATGAAACACACACACAAATGAAAAAAATAT [CACACA_site3018] | 8.88 ± 0.61 |
| ATAGAAATAAAATAAAATAAAAAAAAAATAATGAAA [CACACA_negctrl_site1565] | 8.64 ± 0.43 |
| ATGATCATAAGACACACACACAAAAAAAAAAAAAAA [CACACA_site6936] | 8.22 ± 0.45 |
